Measured values from the supplement of paper PMC3334620.
Whole data set: some 33,000 sequences, median “E-score (-0.5 to 0.5)” near -0.041, cut for the highest 2% near 0.37. This is one part of the list.

The sequences below were run against T1, Ecm22 (UniProt Q05958) (assay: PBM E-score (8-mer binding enrichment) (E-score (-0.5 to 0.5)); higher = stronger / more preferred TF binding; most listed sequences are background and not binding sites). Conditions: protein concentration: 200 nM; construct: GST-full length.
T1 sequence: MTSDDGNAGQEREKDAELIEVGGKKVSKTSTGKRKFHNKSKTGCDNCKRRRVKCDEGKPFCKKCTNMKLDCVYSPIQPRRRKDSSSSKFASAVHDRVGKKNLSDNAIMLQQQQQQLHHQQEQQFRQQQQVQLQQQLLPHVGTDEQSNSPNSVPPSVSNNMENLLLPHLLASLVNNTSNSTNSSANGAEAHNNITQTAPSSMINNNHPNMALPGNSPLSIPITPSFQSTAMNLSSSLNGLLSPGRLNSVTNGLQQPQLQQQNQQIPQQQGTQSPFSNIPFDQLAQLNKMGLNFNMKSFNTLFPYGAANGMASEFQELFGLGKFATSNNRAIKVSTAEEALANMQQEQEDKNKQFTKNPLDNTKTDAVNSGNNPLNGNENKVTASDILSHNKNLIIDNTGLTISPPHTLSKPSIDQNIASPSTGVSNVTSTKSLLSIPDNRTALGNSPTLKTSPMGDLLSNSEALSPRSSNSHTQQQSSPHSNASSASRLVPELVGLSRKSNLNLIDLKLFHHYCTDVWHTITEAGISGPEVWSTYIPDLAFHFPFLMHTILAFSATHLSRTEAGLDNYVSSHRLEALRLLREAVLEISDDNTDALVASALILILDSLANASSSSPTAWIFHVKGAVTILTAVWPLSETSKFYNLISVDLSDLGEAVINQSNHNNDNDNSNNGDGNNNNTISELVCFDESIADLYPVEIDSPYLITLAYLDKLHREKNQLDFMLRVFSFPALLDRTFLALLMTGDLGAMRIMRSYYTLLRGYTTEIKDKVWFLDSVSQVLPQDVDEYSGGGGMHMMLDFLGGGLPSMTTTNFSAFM
Description: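 Universal 'all 10-mer' protein binding microarrays (Agilent AMADID 015681) probed with GST-tagged S. cerevisiae TFs (full-length or DBD) made by in vitro transcription/translation (PURExpress), about 100-200 nM. Bound TF was detected with fluorescent anti-GST. Each ungapped 8-mer (which stands for itself and its reverse complement) is scored by the PBM enrichment score (E-score), a modified Wilcoxon-Mann-Whitney statistic from -0.5 to +0.5, computed with the Universal PBM Analysis Suite. Scale: above 0.35 generally sequence-specific binding.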

Sequence | PBM E-score
GCACGGCA | -0.0485
ACAACAAC | 0.155
ACTCAAAT | -0.0443
GACTTAAC | -0.166
ACGCTGTG | -0.00502
AATTAATA | 0.124
ATCACGTG | 0.0167
ATAATATA | 0.178
GAGTGCGC | -0.0471
CGCTCCAG | 0.12
ATTCCAAC | -0.0284
GCCCGGCC | -0.229
GGCGGATA | -0.038
AAACATTC | 0.0717
AGCCGGAA | -0.0725
CGTGCGTA | 0.233
GCCAACCA | -0.0776
AGATTAGG | -0.0524
ACGTAGCA | 0.0433
CGCCTTCC | -0.138
CGACGACC | 0.154
AAGGTTAA | -0.127

Sequence | PBM E-score
AGCCTTTG | -0.191
AACGGAAT | 0.169
ACAGCCGA | -0.122
GAATGTAA | -0.0287
CGCGCTAA | 0.122
CGAGCACA | 0.225
ATCCTGTG | -0.15
CCAGTCGG | -0.0722
GATAGACA | -0.00063
AATAATTA | 0.0914
ATGGGCGG | -0.0723
ATTAGTAC | 0.137
AAGTATGG | -0.193
CTAAGATC | -0.0418
CCCAATAG | -0.102
AGCGTTTC | -0.0147
GGTAGGTA | -0.00227
GCGTCCGA | 0.18
CCACATTC | -0.207
GCAGATCC | -0.152
AGGGGGCC | -0.295
CATTAGCA | -0.0515

Sequence | PBM E-score
TGACCTAA | 0.1
CTTTCCGC | -0.0543
AGGTGACT | -0.0719
AGCTCTCG | 0.132
ATCTGACA | -0.139
CCATGTAG | -0.262
AATGCCCT | -0.259
AAGAAAGA | -0.00143
GGTGCCGA | -0.072
CTAGAAAC | -0.117
ACGGTCGG | 0.274
TGATCGCA | -0.0274
AGATGAGG | -0.186
GAAACCTC | 0.0577
AGGAGTGC | -0.0873
CGTATCTA | 0.326
CAGGTAAC | -0.0723
ACAGAAAC | 0.00059
CGATATCG | 0.273
CCCTCAAC | -0.248
TTACGAAA | 0.403
AACTATTG | -0.107

Sequence | PBM E-score
AAGCCATT | -0.0128
AGTAACCC | 0.0283
CCCAAAGC | -0.156
CCTCTCCG | -0.264
AGTGACAA | -0.0461
AGTAGGCA | 0.0082
TCACGACA | 0.00255
ACGACTCG | 0.39
CTCGGGTC | 0.276
AGGAGGCC | -0.266
GAATATAA | -0.113
CGGTAATA | 0.0412
ATAGCTTC | 0.0331
GATACTAC | -0.0378
CAGGTGGC | -0.214
ATAGTTGC | -0.00752
ACCAGCCG | -0.0155
ACTTGAAT | -0.108
CGACCTCC | 0.203
TACAGAAA | 0.039
CGTAGTCA | 0.0196
CCAGTTCA | -0.146

Sequence | PBM E-score
GAGGATAC | 0.0845
CCTCAGTA | 0.00549
AATCATTA | -0.0676
CAAGACTC | -0.126
CATCGCGA | 0.162
CGGCACCC | -0.186
CCGGTCAA | -0.0857
ATAAGGCG | -0.0006
CGGTCAAA | 0.219
GGAGGAAC | 0.149
AGCTCAAA | -0.0469
CGACGTGA | 0.185
AGGCTTGA | -0.117
ATCTCAAG | -0.235
CCGCTCAA | -0.0797
AGACACTG | -0.0372
ATCAGCGC | -0.18
GCCTCCGA | -0.182
CTGCATCA | -0.101
AAAGGGGT | -0.196
CCTACTTC | -0.017
AACAACGG | -0.00412
